Test results reported in publication PMC4336329 (PLoS ONE, 2015).
The whole screen tested about 310,000 compounds, of which about 2,200 (0.71%) showed an effect of 50% or more. Effects have a minus sign here. The list shows a part of the results.

These compounds were tested against human ether-à-go-go-related gene (hERG) potassium channel (human, UniProt Q12809) (assay: primary screen, population patch clamp on CHO cells stably expressing hERG).
human ether-à-go-go-related gene (hERG) potassium channel, sequence (Q12809 whole entry, looked up): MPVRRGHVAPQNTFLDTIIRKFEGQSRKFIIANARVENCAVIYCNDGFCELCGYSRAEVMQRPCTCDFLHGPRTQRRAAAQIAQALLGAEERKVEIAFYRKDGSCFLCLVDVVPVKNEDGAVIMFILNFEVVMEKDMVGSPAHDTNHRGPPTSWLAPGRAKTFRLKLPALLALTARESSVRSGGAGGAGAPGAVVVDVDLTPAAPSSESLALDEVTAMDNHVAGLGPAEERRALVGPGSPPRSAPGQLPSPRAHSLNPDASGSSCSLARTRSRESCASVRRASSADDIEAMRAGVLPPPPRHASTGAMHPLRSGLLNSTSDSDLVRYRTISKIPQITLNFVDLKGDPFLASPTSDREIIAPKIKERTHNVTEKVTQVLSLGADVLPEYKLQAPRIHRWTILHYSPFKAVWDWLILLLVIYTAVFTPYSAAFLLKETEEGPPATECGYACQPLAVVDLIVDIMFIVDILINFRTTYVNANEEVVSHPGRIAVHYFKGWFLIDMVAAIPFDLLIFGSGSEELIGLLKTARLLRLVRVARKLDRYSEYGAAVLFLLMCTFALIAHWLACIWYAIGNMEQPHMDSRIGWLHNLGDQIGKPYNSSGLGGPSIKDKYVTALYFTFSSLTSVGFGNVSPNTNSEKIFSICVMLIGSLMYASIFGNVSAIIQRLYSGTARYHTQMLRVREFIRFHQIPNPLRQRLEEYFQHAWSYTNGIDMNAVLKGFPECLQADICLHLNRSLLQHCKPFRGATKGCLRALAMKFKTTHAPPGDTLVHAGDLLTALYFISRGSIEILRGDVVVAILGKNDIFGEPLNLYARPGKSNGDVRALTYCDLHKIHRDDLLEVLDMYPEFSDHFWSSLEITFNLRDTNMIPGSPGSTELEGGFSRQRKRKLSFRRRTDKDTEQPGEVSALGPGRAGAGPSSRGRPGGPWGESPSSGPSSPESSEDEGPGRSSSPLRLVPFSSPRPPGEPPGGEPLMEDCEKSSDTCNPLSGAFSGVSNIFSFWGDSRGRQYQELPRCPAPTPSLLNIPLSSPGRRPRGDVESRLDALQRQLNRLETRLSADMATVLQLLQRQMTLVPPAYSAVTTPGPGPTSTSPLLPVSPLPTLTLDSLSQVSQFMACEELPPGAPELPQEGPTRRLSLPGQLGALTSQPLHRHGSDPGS

SMILES	hERG current change (%, negative = inhibition) at 1uM [%]
CCNc1ccc2noc3c2c1C(=O)c1ccccc1-3	10.7
CCOCc1cc(C)[nH]c(=O)c1C#N	2.48
CCCC(C)c1nnc(NC(=O)C(=O)OCC)s1 (stereo not drawn)	6.89
CN1CCN(C(=O)C2=C[C@@H](c3csc4ccccc34)C[C@@H](OCc3ccc(CO)cc3)O2)CC1	-0.559
O=C(CN1C(=O)NC2(CCCCCCC2)C1=O)N1CCN(C(=O)c2ccco2)CC1	5.61
NC(=O)NC(CC(=O)NCCc1ccc(S(N)(=O)=O)cc1)c1ccc(Cl)cc1 (stereo not drawn)	11.7
CC(=O)Nc1ccc(C(=O)NC(C)c2ccc(-n3ccnc3)cc2)cc1 (stereo not drawn)	13.2
CCc1ccc(CNC(=O)CN2C(=O)COc3ccccc32)cc1	3.96
COc1ccc(-c2cnc3ccccc3n2)cc1NC(=O)CNC(=O)c1ccccc1	18.7
COC(=O)c1[nH]c2ccc(F)cc2c1NS(=O)(=O)c1ccc(OC)cc1OC	7.51
CC1(C)CC(=O)C2=C(C1)Nc1ccccc1NC2c1ccccc1F (stereo not drawn)	15
CC(C)NC(=O)c1ccccc1-c1ccccc1	13.4
COc1ccccc1N1CCN(c2cnccn2)CC1	5.09
COC(=O)c1nnn(CC(=O)Nc2cc(Cl)ccc2C)c1C(=O)OC	9.03
COCc1nnc(NC(=O)CCc2ccccc2)s1	-3.48
COc1ccc(Oc2coc3cc(O)ccc3c2=O)cc1	3.97
CC1CC(=O)Nc2ccccc2N1C(=O)CSc1ncnc2sccc12 (stereo not drawn)	3.79
COc1ccc(/C=C/C(=O)N2CCCc3ccccc32)cc1	3.31
COc1ccc(NC(=O)C2CCCO2)cc1 (stereo not drawn)	5.09
CC(=O)Nc1ccc2c(c1)C(C)(C)C(C)N2C (stereo not drawn)	8.51
COc1ccc(-n2c(C)c(C(C)=O)c3cc(OC(C)=O)ccc32)cc1	21.1
CCc1ccc(OCC(=O)N/N=C\c2ccco2)c([N+](=O)[O-])c1	-0.899
CN(CC(=O)Nc1ccc(S(=O)(=O)N2CCOCC2)cc1)Cc1ccc(F)cc1	6.46
CC(C)c1nnc(SCC(=O)N2CCc3ccccc32)n1N	11.4

SMILES	hERG current change (%, negative = inhibition) at 1uM [%]
Cc1cccc(NC(=O)COC(=O)CCc2ccccc2)c1C	12.5
Cc1cc(C(=O)COC(=O)c2ccc([N+](=O)[O-])o2)c(C)n1CC1CCCO1 (stereo not drawn)	-3.19
COc1cccc(-c2ncc3ccccc3c2COC(=O)N2CCCCC2)c1	15.3
COc1ccc(C(=O)CC(=O)C(=O)Nc2cccc([N+](=O)[O-])c2C)cc1	17.8
Cc1ccc(CCNC(=O)c2nnc(CS(=O)(=O)c3ccccc3)o2)cc1	6.22
CCOC(=O)N1CCN(C(=O)Cn2cnc3ccccc3c2=O)CC1	12.7
Cc1nn(C)cc1S(=O)(=O)Nc1ccccc1Br	17
COc1ccc(-n2ncc3c(NCc4cccs4)ncnc32)cc1	8.61
Cc1cc(=O)oc2cc(OC(C)C(=O)Nc3nccs3)ccc12 (stereo not drawn)	0.489
CNC(=O)C1CC(=O)N(c2ccc(F)c(Cl)c2)C1 (stereo not drawn)	4.53
O=c1c2ccccc2nc2n1CCN2Cc1ccc(Cl)cc1	-4.95
CC1(C)S/C(=N/N=C/c2cccs2)NC1=O	7.83
CCCCOC(=O)NS(=O)(=O)c1sc(CC(C)C)cc1-c1ccc(Cn2c(CC)nc3c(C)cc(C)nc32)cc1	11.6
O=C(NCc1cccnc1)c1cn(CCc2ccccc2)nn1	5.53
CCn1c(=O)c(C(C)=O)nc2ccccc21	2.78
COc1ccc(C2NC(=O)CCC2[N+](=O)[O-])cc1 (stereo not drawn)	19.2
O=c1cc(-c2ccccc2)c2c(O)cc(O)cc2o1	3.67
COC(=O)c1ccc(C(=O)OC)nc1	15
CCOC(=O)c1ccc(NC(=S)NCCc2ccc(OC)c(OC)c2)cc1	8.09
CCOc1ccc(/C(C)=N/NC(=O)C(OC)c2ccccc2)cc1 (stereo not drawn)	10.8
COc1ccccc1CCNS(=O)(=O)CCNC(=O)c1ccccc1	6.75
O=C(CN(C(=O)c1csnn1)c1cccc2c1CCCC2)NC1CCCC1	13.1
C=CCNC(=O)CCc1nnc(C2(c3ccc(Cl)cc3)CCC2)o1	14.3
O=C(Cn1cccn1)c1ccccc1	14.3

SMILES	hERG current change (%, negative = inhibition) at 1uM [%]
CN(C)S(=O)(=O)Nc1cccc(Br)c1	3.24
O=C(Nc1cccc(F)c1)Nc1ccc(Cl)cn1	1.67
COc1ccc(OCC(=O)Nc2ccc3c(c2)nc(CCN2CCCC2)n3C)cc1	0.42
O=C1C=C(c2ccc(Cl)c(C(F)(F)F)c2)C[C@@H](c2ccc(F)cc2)C1	15.8
O=C(c1ccccn1)N1CCCC(N2CCN(c3cccc(C(F)(F)F)c3)CC2)C1 (stereo not drawn)	-2.23
COC(=O)c1ccc(N=Cc2c(C(F)(F)F)[nH][nH]c2=O)cc1	13.1
CCOC(=O)c1sc2nc(COC(=O)c3c(F)cccc3F)[nH]c(=O)c2c1C	-2.14
O=C(CN1CCCCC1)Nc1nnc(-c2ccc([N+](=O)[O-])cc2)s1	3.36
NC(=S)N/N=C/c1ccccc1OCc1cccc(Cl)c1	0.752
COc1ccc(CCNC(=O)CSc2ccc(-c3ccco3)nn2)cc1OC	10.4
O=C(Nc1ccc2c(c1)OCO2)C1CCCCN1S(=O)(=O)c1ccc(F)cc1 (stereo not drawn)	-0.837
O=C(CCS(=O)(=O)c1ccccc1)Nc1nc(-c2ccc(F)cc2)cs1	-1.01
CS(=O)(=O)c1ccc(Cl)c(NC(=O)COC(=O)c2cccc(S(=O)(=O)N3CCCC3)c2)c1	0.346
O=c1c2cc(N3CCOCC3)ccc2[nH]c(=S)n1Cc1ccccc1Cl	9.46
Cc1ccc(OCCCn2c(CO)nc3ccccc32)cc1	0.848
CCOc1ccc2[nH]c(=O)c(CN(CCCO)S(=O)(=O)c3ccc(F)cc3)cc2c1	2.55
CCOC(=O)C(NC(=O)c1ccccc1OCC)(Nc1ncccn1)C(F)(F)F (stereo not drawn)	0.28
CSc1nc(C)cc(SCC(=O)Nc2ccc(Cl)cc2Cl)n1	9.54
O=C(NCc1ccccc1)c1ccc(Br)cc1Br	11.3
CC(C)(C)c1cc(-c2ccccc2)n[nH]1	7.95
COc1ccc(C(=O)NC(=S)NNC(=O)c2ccccc2C)cc1	11.2
CCOc1ccccc1NC(=O)Nc1ccc(Br)cc1C	9.87
Cn1cccc1-c1cc(C(=O)N/N=C/c2ccccc2Cl)[nH]n1	10.7
O=C1C2C3C=CC(C3)C2C(=O)N1Cc1cccnc1 (stereo not drawn)	6.1

SMILES	hERG current change (%, negative = inhibition) at 1uM [%]
O=C(Nc1ccc([N+](=O)[O-])cc1)C(=O)Nc1cccc(C(=O)O)c1	1.54
O=C1CSC(c2ccc3c(c2)OCO3)N1c1ccc(Oc2ccccc2)cc1 (stereo not drawn)	0.177
Oc1ccc(-c2nnc(SCc3ccccc3)o2)cc1	6.29
CCN(CCNC(=O)Nc1ccc(Cl)cc1)c1ccccc1	9.78
Cc1ccc(CNC(=O)[C@@H]2CCC(=O)N2Cc2ccco2)cc1	17.4
COc1ccc(-c2nc(CS(=O)CC(=O)NCc3ccc(Cl)cc3)c(C)o2)cc1 (stereo not drawn)	3.9
O=C(c1cc(F)c(F)cc1Cl)N1CCN(c2ncccn2)CC1	14.4
COc1cc(C(=O)N2C(=O)c3cccc(N)c3C2=O)cc(OC)c1OC	8.97
Cn1cccc1CNC(=S)Nc1ccccc1Cl	11.2
NS(=O)(=O)c1cccc(NC(=O)CCC(=O)c2cccs2)c1	14.1
COc1ccccc1CNC(=O)C(=O)NCCC1CCCCN1S(=O)(=O)c1cccs1 (stereo not drawn)	17.3
COc1ccc(/C=C2/SC(=S)N(CCC(=O)N3CCN(C)CC3)C2=O)cc1	13.5
CCOC(=O)/C=C1\NC(C)(C)Cc2cc(OC)c(O)cc21	-6.93
CCOC(=O)N1CCC(NC(=S)Nc2ccc3nc(N4CCN(C)CC4)cc(C)c3c2)CC1	10.1
NC(=S)Nc1ccc(F)cc1F	8.3
CCCc1c(C)nc(N2CCN(c3ccccc3OC)CC2)[nH]c1=O	15.5
C=CC[n+]1c(-c2ccc(OC)c(OC)c2)csc1NNC(=O)Nc1ccccc1.[Br-]	9.69
O=C(O)CSc1nnc(Cn2cnc3ccccc32)n1CCc1ccccc1	20.5
COc1ccccc1NC(=O)NC1CCCCCCC1	22.5
Cc1ccc(-n2ncc3c(=O)[nH]c(SCC(=O)N4CCCCC4)nc32)cc1	2.74
C=CCNC(=O)CCCCC(=O)NCC=C	7.66
